# Assay results taken from article PMC12136788.
# The other results are listed elsewhere or left out.
# B1: chr9:16436428:16436529:-|CDS|ENSG00000173068|msi1|total|mutant (ssRNA)
# RNA: GGGAGUUCUACAGUCCGACGAUCCUCCCCCGCCAGCCCGUAUUUUCUGGGCUAAAGACUGUACAACCAGUUCCUCCAUUUUACCGAAGUUUACUCACUCCAGGGGAAAUGGUGAGUCCUCCAACCUCCCUCCCAACCAGUCCCCAACAGAGGAUUGAGCAUCA
# B2: chr1:52238154:52238269:+|CDS|ENSG00000157077|unk|FALSE|unique (ssRNA)
# RNA: GGGAGUUCUACAGUCCGACGAUCUCUGAUAGUCUAGCCAGUGUCUGUUCCCCUUCACAAUUAAAGGAUGACGGAAGUAUAGGUAGAGACCCCUCCAUGUCUGCGAUUACAAGUUUAACGGUUGAUUCAGUAAUCUCAUCCCAGCAACAGAGGAUUGAGCAUCA
# B3: chr10:78035461:78035635:+|CDS|ENSG00000138326|unk|FALSE|unique (ssRNA)
# RNA: GGGAGUUCUACAGUCCGACGAUCCAUUGAUGUCCUUCACCCCGGGAAGGCGACAGUGCCUAAGACAGAAAUUCGGGAAAAACUAGCCAAAAUGUACAAGACCACACCGGAUGUCAUCUUUGUAUUUGGAUUCAGAACUCAUUUCAACAGAGGAUUGAGCAUCA
# B4: ENSG00000070961:be:win_1751|CDS|ENSG00000070961|bound_else_gene|NA|bound_elsewhere_windowed (ssRNA)
# RNA: GGGAGUUCUACAGUCCGACGAUCCCAUGAGUACUGUCCUGAAAAAUUCAGAUGGAAGUUAUCGAAUAUUCAGCAAGGGUGCAUCUGAGAUAAUUCUGAAAAAGUGUUUCAAAAUCUUGAGUGCUAAUGGUGAGGCAAAAGUAUCAACAGAGGAUUGAGCAUCA
# B5: chr1:205810550:205810651:-|5pUTR|ENSG00000133065|unk|FALSE|bound_elsewhere (ssRNA)
# RNA: GGGAGUUCUACAGUCCGACGAUCUUGCGGCUUCAGUGCUUGAUGGGGCUGCCUGUUGGUGGAUCAGUUUUUGCAGUGCCUGGUAGGAGUGGAGAGCCGUGGGAAGAGGUCCUGCGGCGCCCAAGCCUGGGUUCACCCCAAGACCAACAGAGGAUUGAGCAUCA
# B6: chr7:95294748:95294849:+|3pUTR|ENSG00000158528|msi1|FALSE|bound_elsewhere (ssRNA)
# RNA: GGGAGUUCUACAGUCCGACGAUCGAGAAAGCCGACAGAAUCAGCUUCUCCUGGAAAGUGAAAGCAUCAAGUUCUAUUUAUGGUAGACAGAGGGUCCUUAUUUGCUUGUCCGUGGUGUCUAUGUGGGCCUAUUGAGGGAAUGGUCAACAGAGGAUUGAGCAUCA
# B7: chr10:86890108:86890218:+|CDS|ENSG00000107779|unk|total|mutant (ssRNA)
# RNA: GGGAGUUCUACAGUCCGACGAUCUCAUGGCACUGGGAUGAAAUCAGACUCCGACCAGAAAAAGUCAGAAAAUGGAGUAACCUCCGCACCAGAGGAUACCUUGCCUUUUUUAAAGUGCUAUUGCUCAGGGCACUGUCCAGAUGACAACAGAGGAUUGAGCAUCA
# B8: ENSG00000070961:be:win_5601|3pUTR|ENSG00000070961|bound_else_gene|NA|bound_elsewhere_windowed (ssRNA)
# RNA: GGGAGUUCUACAGUCCGACGAUCGAGGUAGCAUGAUAUGCUGGAAAGCAUAUUAGACUAGGAGUCAAGACCUGGUUUCUAGUCUUGGUUUUGCCAUUAAUGUGCUGCAUGAUCUUGGGAAAAUCAUUUACCCUAAAUAAGGGUCAACAGAGGAUUGAGCAUCA
# B9: chr1:226632358:226632459:-|3pUTR|ENSG00000143772|msi1|total|mutant (ssRNA)
# RNA: GGGAGUUCUACAGUCCGACGAUCUCAAGCCAUUUUGCCACUCGCUUCCCUGCCAUCUGGCCCUUCCCUUUGUCUCAGUGGGACCGAUGGAUUGUGAAAUGGAAUCUCCCAGAACCCCUGCCCUGGCAGCCUGGAAGACCGUGCCAACAGAGGAUUGAGCAUCA
# B10: chr1:186359875:186359976:-|CDS|ENSG00000047410|msi1_unk|FALSE|overlapping (ssRNA)
# RNA: GGGAGUUCUACAGUCCGACGAUCGGAAACUCAGGAUCAGUUGCUUUUGGAGAAACUAGAGAACAAAAGAAUUAAUAAGUACCUAGAUGAAAUAGUGAAAGAAGUGGAAGCCAAAGCACCAAUUUUGAAACGCCAGCGUGAGGACAACAGAGGAUUGAGCAUCA
# B11: chr20:63196482:63196583:-|3pUTR|ENSG00000149658|msi1|total|mutant (ssRNA)
# RNA: GGGAGUUCUACAGUCCGACGAUCUGAUUUUUGCCCAGAUGGAUCUGCAUUUAUUUGUACUUUUUCUAUGUAUUAUAAUCCUGCCGAAGUCACUAAUAAAGGAGUAUUUUUUUUGUCAGCUUAUCAAUCAGACUGAUCUAAUGUCAACAGAGGAUUGAGCAUCA
# B12: chr6:157944353:157944454:+|3pUTR|ENSG00000130340|unk|FALSE|unique (ssRNA)
# RNA: GGGAGUUCUACAGUCCGACGAUCAGUAAUUCUCCCCACUUGAUUUUUCUUCUAUAAAAUCCCAUAGAACAAUGUUUAUGCUAUAGCCAUUUAAUAUAUGUACAAAUUGUAAAGAAUAUGUAUAAAUGUUUUACACGAAUGUAACAACAGAGGAUUGAGCAUCA
# B13: chrX:30828625:30828726:-|3pUTR|ENSG00000157625|msi1|FALSE|bound_elsewhere (ssRNA)
# RNA: GGGAGUUCUACAGUCCGACGAUCUUCUUGUUUCUUGUAAGAGGUUUCUUUAAAAUGACUAGUUUGAUGUAUCUGGUAACAUAUAGGCCUGACUAUACAUUUUACAUUAUUUCGCUAUUUUGUAAACUGGGAUUUUAGAAAGCACAACAGAGGAUUGAGCAUCA
# B14: chr19:41259979:41260080:+|3pUTR|ENSG00000167601|msi1|total|mutant (ssRNA)
# RNA: GGGAGUUCUACAGUCCGACGAUCCCUGUCUUCCUACCUAUCCCACCUCCAUCCCAGACAGGUCCCUCCCCUUCUCUGUGCAGCCGCAUCACCUUGAAAGCAGCCGCAUCACCAUCUGUAAAAGGAAGGGGUUGGAUUGCAAUACAACAGAGGAUUGAGCAUCA
# B15: chr12:104348774:104348848:+|3pUTR|ENSG00000198431|msi1_unk|total|mutant (ssRNA)
# RNA: GGGAGUUCUACAGUCCGACGAUCCGUUGUCAAGUUUUCCCGGGUUGAAUUUUUUUCUUUUUUCUCCAUGGUGUUAAUGAUAUCCGAGAUGAAAAACGUCCGCAGUUGAUUUUUGUCCAAAAGCAAGUCAUGGCCCGAGUAUCCCAACAGAGGAUUGAGCAUCA
# B16: chr5:150649000:150649101:+|CDS|ENSG00000171992|msi1|total|mutant (ssRNA)
# RNA: GGGAGUUCUACAGUCCGACGAUCCAGGCCUUUUGGGAUCCAGGCGCCAGGGGGCACCAGCCAGAUGGAGAGGAGCCCCAUGCCCGAGAGACGACAUUUUGGGGAGAAGGCCCCGGCUCCCCAGCCCCCCAGUUUGCCAGACAGCAACAGAGGAUUGAGCAUCA
# B17: chr5:148442723:148442824:+|3pUTR|ENSG00000145868|unk|FALSE|unique (ssRNA)
# RNA: GGGAGUUCUACAGUCCGACGAUCUUAUGAGCUUAAAAAAAAGUGAGUUUGAGAGGGAAAUGGAAAAGUUUCCAGAGUAUUUCUAGUAAUUUAUUUCCACAUUGAAUUGUGUAUAUGCUUUAUCUUGAAUAUAAAAUAAAAGUUCAACAGAGGAUUGAGCAUCA
# B18: chr14:94062441:94062542:-|CDS|ENSG00000089737|msi1|total|mutant (ssRNA)
# RNA: GGGAGUUCUACAGUCCGACGAUCCCUCCAAGUAACACCGAAGCACCACCUGGAGAGACCAGAACUGAGGCCGGAGCUGAGACCCGAUCACCAGGCAAGGCUGAAGCUGAGUCUGAUGCAUUGCCUGACGAUACUGUAAUUGAGCAACAGAGGAUUGAGCAUCA
# B19: chr2:218454035:218454136:-|3pUTR|ENSG00000135913|msi1|FALSE|unique (ssRNA)
# RNA: GGGAGUUCUACAGUCCGACGAUCGAGAUUUCUUCACACAGUAUGUUCAUCAUAUAUCAUCAUCAUUAUUAUGGUGGUAAAGAUAGAAUCUUUUUUCUUUUUUGUCAUUCUGCCAUGGAGCAGCAUUACCCUAAUGGAUUGCAACAACAGAGGAUUGAGCAUCA
# B20: chr12:130875966:130876013:+|3pUTR|ENSG00000132341|msi1_unk|total|mutant (ssRNA)
# RNA: GGGAGUUCUACAGUCCGACGAUCGAUGAGGAUGAUGACCUGUGAGAAUGAAGCUGGAGCCCAGCGUCAGAAGUCCCGUUUUACCGGCAGCUGUCCUGUGAUGUCAGCGGUGCAGCGUGUGUGCCACCUCAUUAUUAUCCCGCUCAACAGAGGAUUGAGCAUCA
# B21: chr2:42328916:42329027:+|CDS|ENSG00000143924|unk|FALSE|unique (ssRNA)
# RNA: GGGAGUUCUACAGUCCGACGAUCAGAAGGAUCUGAUGGGACAGAUAUCAAUGCACUGGUGCGAUCCCACAAUAGAAAGGUGAUAGCUGUUGCCGAUGACUUUUGUAAAGUCCAUCUGUUUCAGUAUCCCUGCUCCAAAGCAAACAACAGAGGAUUGAGCAUCA
# B22: chr5:150401636:150402250:-|three_prime_utr|ENSG00000019582|control|control|control (ssRNA)
# RNA: GGGAGUUCUACAGUCCGACGAUCCUGCUGCCCAAUCUCCAUCUGUCAACAGGGGCGUGAGGUCCCAGGAAGUGGCCAAAAGCUAGACAGAUCCCCGUUCCUGACAUCACAGCAGCCUCCAACACAAGGCUCCAAGACCUAGGCCAACAGAGGAUUGAGCAUCA
# Molecular target: MSI1 full-length (mouse, UniProt Q61474 1-362)
# Experiment: nsRBNS (natural sequence RNA bind-n-seq); RBNS binding buffer (assumed for nsRBNS): 25 mM Tris pH 7.5, 150 mM KCl, 3 mM MgCl2, 0.01% Triton X-100, 500 ug/ml BSA, 20 U/ml SUPERase-In, 4 C; UNK is unkempt and MSI1 is Musashi-1; names of the RNAs are library labels; protein concentration not given here; high values mean tight binding
# Sequence of UniProt Q61474 (Q61474 whole entry): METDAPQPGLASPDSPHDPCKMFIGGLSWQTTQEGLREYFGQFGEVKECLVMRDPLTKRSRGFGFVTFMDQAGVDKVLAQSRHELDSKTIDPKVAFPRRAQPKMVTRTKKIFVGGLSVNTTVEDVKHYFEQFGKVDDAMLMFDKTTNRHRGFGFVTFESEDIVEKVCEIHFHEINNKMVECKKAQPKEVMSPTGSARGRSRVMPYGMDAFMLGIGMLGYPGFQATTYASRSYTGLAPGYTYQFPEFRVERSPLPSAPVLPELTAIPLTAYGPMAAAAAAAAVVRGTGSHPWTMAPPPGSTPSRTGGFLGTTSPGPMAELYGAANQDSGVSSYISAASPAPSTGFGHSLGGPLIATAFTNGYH
row,Binder,binding signal
1,B1,0.834 enrichment R
2,B2,1.47 enrichment R
3,B3,0.567 enrichment R
4,B4,0.27 enrichment R
5,B5,0.396 enrichment R
6,B6,0.482 enrichment R
7,B7,0.287 enrichment R
8,B8,0.263 enrichment R
9,B9,1.14 enrichment R
10,B10,9.6 enrichment R
11,B11,0.79 enrichment R
12,B12,3.06 enrichment R
13,B13,0.868 enrichment R
14,B14,0.602 enrichment R
15,B15,0.246 enrichment R
16,B16,0.42 enrichment R
17,B17,0.985 enrichment R
18,B18,0.403 enrichment R
19,B19,0.284 enrichment R
20,B20,0.476 enrichment R
21,B21,0.284 enrichment R
22,B22,0.462 enrichment R
